The supplement of paper PMC4967469
A lower IC50 marks a more sensitive line; a limit (>, <) means that the fit lies beyond the doses tested. AUC is the area under the same curve over the 256-fold range up to the top dose, as a fraction; values near 1 show little effect. For part of these data: Where the top dose is marked as inferred, it was derived from the fitted curves, not read from the paper.

Assays:
Test in all cases: Viability of human cancer cell lines after 72 h of drug (GDSC screen)
17-AAG = compound: C=CCNC1=C2C[C@@H](C)C[C@H](OC)[C@H](O)[C@@H](C)/C=C(\C)[C@H](OC(N)=O)[C@@H](OC)/C=C\C=C(/C)C(=O)NC(=CC1=O)C2=O [17-AAG]; conditions: top dose 1 µM
Method: (§1)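 Human cancer cell lines in 384-well plates, medium with 10% serum, drug for 72 h over a 256-fold dose range (nine 2-fold or five 4-fold steps up to the top dose). Adherent lines were fixed and stained with the nucleic acid dye Syto60, suspension lines read with resazurin; signal relative to control wells, capped at 0 and 100%. One two-parameter sigmoid per drug and line, fitted in a mixed model over all curves with the slope shared within a line.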

BIX02189 = compound: CN(C)Cc1cccc(N=C(c2ccccc2)c2c(O)[nH]c3cc(C(=O)N(C)C)ccc23)c1 [BIX02189]; conditions: top dose 20 µM; top dose inferred
Method: as §1

Dimethyloxalylglycine = compound: COC(=O)CNC(=O)C(=O)OC [Dimethyloxalylglycine]; conditions: top dose 4000 µM; top dose inferred
Method: as §1

Doxorubicin = compound: COc1cccc2c1C(=O)c1c(O)c3c(c(O)c1C2=O)C[C@@](O)(C(=O)CO)C[C@@H]3O[C@H]1C[C@H](N)[C@H](O)[C@H](C)O1 [Doxorubicin]; conditions: top dose 1.024 µM
Method: as §1

OSI-027 = compound: COc1cccc2cc(-c3nc([C@H]4CC[C@H](C(=O)O)CC4)n4ncnc(N)c34)[nH]c12 [OSI-027]; conditions: top dose 20 µM
Method: as §1

Vismodegib = compound: CS(=O)(=O)c1ccc(C(=O)Nc2ccc(Cl)c(-c3ccccn3)c2)c(Cl)c1 [Vismodegib]; conditions: top dose 10 µM; top dose inferred
Method: as §1

VX-11e = compound: Cc1cnc(Nc2ccc(F)cc2Cl)nc1-c1c[nH]c(C(=O)N[C@H](CO)c2cccc(Cl)c2)c1 [VX-11e]; conditions: top dose 5.12 µM; top dose inferred
Method: as §1

TG101348 = compound: Cc1cnc(Nc2ccc(OCCN3CCCC3)cc2)nc1Nc1cccc(S(=O)(=O)NC(C)(C)C)c1 [TG101348]; conditions: top dose 10.24 µM
Method: as §1

UNC1215 = compound: O=C(c1ccc(C(=O)N2CCC(N3CCCC3)CC2)c(Nc2ccccc2)c1)N1CCC(N2CCCC2)CC1 [UNC1215]; conditions: top dose 1 µM; top dose inferred
Method: as §1

CCT018159 = compound: CCc1cc(-c2n[nH]c(C)c2-c2ccc3c(c2)OCCO3)c(O)cc1O [CCT018159]; conditions: top dose 10 µM; top dose inferred
Method: as §1

Row | Cell Line | AUC (17-AAG) | IC50 (17-AAG) [µM] | AUC (BIX02189) | IC50 (BIX02189) [µM] | AUC (Dimethyloxalylglycine) | IC50 (Dimethyloxalylglycine) [µM] | AUC (Doxorubicin) | IC50 (Doxorubicin) [µM] | AUC (OSI-027) | IC50 (OSI-027) [µM] | AUC (Vismodegib) | IC50 (Vismodegib) [µM] | AUC (VX-11e) | IC50 (VX-11e) [µM] | AUC (TG101348) | IC50 (TG101348) [µM] | AUC (UNC1215) | IC50 (UNC1215) [µM] | AUC (CCT018159) | IC50 (CCT018159) [µM]
1 | SNU-423 (liver, adherent) | 0.963 | > 1 | 0.928 | > 20 | 0.466 | 198 | 0.524 | 0.0752 | 0.235 | 0.183 | 0.982 | > 10 | 0.951 | > 5.12 | 0.798 | 5.85 | 0.98 | > 1 |  | 
2 | RPMI-2650 (head and neck, adherent) | 0.916 | > 1 | 0.951 | > 20 | 0.527 | 299 | 0.298 | 0.0164 | 0.451 | 0.909 | 0.974 | > 10 | 0.963 | > 5.12 | 0.879 | > 10.2 | 0.983 | > 1 |  | 
3 | PFSK-1 (medulloblastoma, adherent) | 0.883 | > 1 | 0.96 | > 20 | 0.546 | 336 | 0.752 | 0.357 | 0.431 | 0.799 | 0.977 | > 10 | 0.982 | > 5.12 | 0.808 | 5.71 |  |  |  | 
4 | COLO-824 (breast, adherent) | 0.626 | 0.14 | 0.972 | > 20 | 0.793 | 1880 | 0.932 | > 1.02 | 0.844 | 14.8 | 0.985 | > 10 | 0.974 | > 5.12 | 0.817 | 5.89 | 0.984 | > 1 |  | 
5 | BHY (head and neck, adherent) | 0.725 | 0.273 | 0.973 | > 20 | 0.574 | 399 | 0.388 | 0.0315 | 0.544 | 1.65 |  |  | 0.901 | > 5.12 | 0.859 | 8.5 | 0.985 | > 1 | 0.963 | > 10
6 | BCPAP (thyroid, adherent) | 0.667 | 0.173 | 0.944 | > 20 | 0.465 | 202 | 0.445 | 0.046 | 0.241 | 0.244 |  |  | 0.871 | 4.06 | 0.802 | 4.49 | 0.988 | > 1 | 0.872 | 7.97
7 | DB (B-cell lymphoma, suspension) | 0.891 | > 1 | 0.796 | 10.8 | 0.278 | 53.5 | 0.638 |  | 0.497 | 1.23 | 0.92 | > 10 | 0.878 | > 5.12 | 0.751 | 3.76 | 0.97 | > 1 |  | 
8 | IGR-37 (melanoma, adherent) | 0.292 | 0.0172 |  |  |  |  | 0.478 | 0.0561 |  |  | 0.988 | > 10 | 0.68 | 0.969 | 0.989 | > 10.2 | 0.988 | > 1 | 0.895 | > 10
9 | SNU-449 (liver, adherent) | 0.979 | > 1 | 0.941 | > 20 | 0.338 | 84.9 | 0.821 | 0.664 | 0.278 | 0.275 | 0.986 | > 10 | 0.963 | > 5.12 | 0.875 | > 10.2 | 0.972 | > 1 |  | 
10 | MHH-NB-11 (neuroblastoma, adherent) | 0.932 | > 1 | 0.859 | 19.3 | 0.867 | > 4000 | 0.691 | 0.234 | 0.743 | 6.74 | 0.932 | > 10 | 0.893 | > 5.12 | 0.758 | 3.87 |  |  |  | 
11 | TCCSUP (bladder, adherent) | 0.506 | 0.065 | 0.981 | > 20 | 0.591 | 459 | 0.803 | 0.595 | 0.784 | 9.81 |  |  | 0.985 | > 5.12 | 0.932 | > 10.2 | 0.981 | > 1 | 0.896 | > 10
12 | PANC-03-27 (pancreas, adherent) | 0.6 | 0.115 | 0.907 | > 20 | 0.649 | 628 | 0.355 | 0.0261 | 0.499 | 1.24 | 0.987 | > 10 | 0.921 | > 5.12 | 0.915 | > 10.2 | 0.987 | > 1 |  | 
13 | SW13 (adrenal gland, adherent) | 0.942 | > 1 | 0.988 | > 20 | 0.617 | 526 | 0.62 | 0.138 | 0.923 | > 20 | 0.97 | > 10 | 0.988 | > 5.12 | 0.986 | > 10.2 | 0.986 | > 1 |  | 
14 | HCC-827 (lung adenocarcinoma, adherent) | 0.88 | > 1 | 0.971 | > 20 | 0.48 | 219 | 0.843 | 0.891 | 0.736 | 6.64 |  |  | 0.981 | > 5.12 | 0.817 | 6.88 | 0.983 | > 1 | 0.804 | 5.93
15 | JAR (urogenital system, adherent) | 0.943 | > 1 | 0.961 | > 20 | 0.881 | > 4000 | 0.816 | 0.552 | 0.665 | 3.56 |  |  | 0.984 | > 5.12 | 0.753 | 3.35 | 0.981 | > 1 | 0.868 | 8.78
